From paper PMC4336329 (PLoS ONE, 2015)
In all, about 310,000 compounds went through this assay and about 14,000 (4.5%) showed an effect of 50% or more. The effect is printed as a negative number. The list shows a part of the results.

Molecular target: human ether-à-go-go-related gene (hERG) potassium channel (human, UniProt Q12809)
Assay: primary screen, population patch clamp on CHO cells stably expressing hERG
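Also: peak tail current of the secondary pulse compared with the same well before compound.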

Chain of human ether-à-go-go-related gene (hERG) potassium channel (Q12809 whole entry, looked up): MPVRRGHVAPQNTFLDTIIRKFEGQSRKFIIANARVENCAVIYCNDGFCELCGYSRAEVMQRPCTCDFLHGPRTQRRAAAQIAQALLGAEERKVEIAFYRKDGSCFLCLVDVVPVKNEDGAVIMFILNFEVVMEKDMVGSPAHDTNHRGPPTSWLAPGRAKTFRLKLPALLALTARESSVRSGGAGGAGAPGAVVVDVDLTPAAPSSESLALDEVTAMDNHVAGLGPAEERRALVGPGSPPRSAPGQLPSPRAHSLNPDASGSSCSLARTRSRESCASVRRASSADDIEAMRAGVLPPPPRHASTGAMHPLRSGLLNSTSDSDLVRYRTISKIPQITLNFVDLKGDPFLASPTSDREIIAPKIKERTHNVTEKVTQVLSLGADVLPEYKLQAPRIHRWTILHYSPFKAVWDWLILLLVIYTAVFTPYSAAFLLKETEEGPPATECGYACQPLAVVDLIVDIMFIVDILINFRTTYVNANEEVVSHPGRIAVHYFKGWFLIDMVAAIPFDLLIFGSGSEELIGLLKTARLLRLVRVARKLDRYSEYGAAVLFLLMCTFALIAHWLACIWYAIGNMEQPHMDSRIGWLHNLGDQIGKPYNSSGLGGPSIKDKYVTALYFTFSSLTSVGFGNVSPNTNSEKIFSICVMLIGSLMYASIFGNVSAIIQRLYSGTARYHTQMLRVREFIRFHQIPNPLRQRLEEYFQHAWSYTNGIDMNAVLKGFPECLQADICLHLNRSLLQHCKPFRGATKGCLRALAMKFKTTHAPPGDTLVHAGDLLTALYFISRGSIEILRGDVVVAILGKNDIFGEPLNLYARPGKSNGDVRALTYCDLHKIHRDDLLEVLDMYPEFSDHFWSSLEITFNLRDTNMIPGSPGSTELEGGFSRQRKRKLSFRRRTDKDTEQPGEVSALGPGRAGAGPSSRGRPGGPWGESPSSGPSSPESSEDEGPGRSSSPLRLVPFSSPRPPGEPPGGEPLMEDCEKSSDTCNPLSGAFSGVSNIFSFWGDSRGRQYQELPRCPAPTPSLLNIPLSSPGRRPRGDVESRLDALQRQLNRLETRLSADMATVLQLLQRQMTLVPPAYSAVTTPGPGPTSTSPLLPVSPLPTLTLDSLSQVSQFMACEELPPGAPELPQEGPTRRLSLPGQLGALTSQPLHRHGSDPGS

First: C=CCn1c2ccccc2c(=O)c2cc(C#Cc3ccccn3)ccc21
Second: Cc1ccc(S(=O)(=O)n2cc(-c3ccccc3)c3ccccc32)cc1
The “hERG current change (%, negative = inhibition) at 10uM” value of the first is lower: -0.113% for the first, 16.5% for the second.

Going from `O=c1nc(Nc2ccccc2)sc2ccc([N+](=O)[O-])cc12` to `COC(=O)c1nc(N)sc1-c1ccccc1`, the “hERG current change (%, negative = inhibition) at 10uM” value rises from 0.136% to 5.87%.

Compared with `Cc1ccccc1NCC(=O)Nc1cc(S(=O)(=O)N2CCCCC2)ccc1C`, `COc1ccccc1C(CNC(=O)CNC(=O)c1ccc(C)c(C)c1)N1CCCC1` (stereo not drawn) is lower in “hERG current change (%, negative = inhibition) at 10uM” value: 0.834% for the first, -6.27% for the second.

Going from `COc1ccc(OC)c(NC(=O)CCNS(=O)(=O)c2cccs2)c1` to `COc1ccc(S(=O)(=O)N2CCC(C(=O)NCC(c3cccs3)N(C)C)CC2)cc1` (stereo not drawn), the “hERG current change (%, negative = inhibition) at 10uM” value falls from 1.56% to -15.8%.

Compared with `Cc1cccc(C(C)C)c1NC(=O)CN1C(=O)NC2(CCc3ccccc32)C1=O` (stereo not drawn), `Cc1ccc(C)c(NC(=O)COC(=O)c2cc3ccccc3oc2=O)c1` is lower in “hERG current change (%, negative = inhibition) at 10uM” value: 19.4% for the first, -7.96% for the second.

First: C[C@H](NC(=O)OCc1ccccc1)c1nnc([C@H](C)NC(=O)OCc2ccccc2)o1
Second: Oc1ccc(-c2[nH]nc(-c3ccccc3)c2-c2nc3ccccc3[nH]2)cc1
The “hERG current change (%, negative = inhibition) at 10uM” value of the first is lower: -38.7% for the first, -12.7% for the second.

Going from `CCOc1ccc(CC(=O)NNC(=O)/C=C/C(=O)O)cc1` to `COc1ccc(Oc2cccc(Cl)c2CNC(=O)CCC(=O)O)cc1`, the “hERG current change (%, negative = inhibition) at 10uM” value falls from 15.9% to -0.617%.

Going from `CC(C)(C)c1ccc(C(=O)NCCCNC(=O)c2cccnc2)cc1` to `Cc1ccc(C(=O)N/C(=C/c2ccc(N(C)C)cc2)C(=O)NCC2CCCO2)cc1` (stereo not drawn), the “hERG current change (%, negative = inhibition) at 10uM” value falls from 11.7% to 9.55%.

Going from `COc1cccc(-c2cc(=O)[nH][nH]2)c1` to `CCCc1cc(=O)[nH]c(SCCOc2ccc(OCC)cc2)n1`, the “hERG current change (%, negative = inhibition) at 10uM” value falls from 18% to 4.7%.

First: C[C@H](CCC(=O)O)[C@H]1CC[C@H]2[C@@H]3CC[C@@H]4C[C@H](O)CC[C@]4(C)[C@H]3CC[C@]12C
Second: CCOC(=O)C1CCN(C(=O)CSc2c3c(nc4ccccc24)CCC3)CC1
The “hERG current change (%, negative = inhibition) at 10uM” value of the first is higher: 33.5% for the first, -21.3% for the second.

Going from `CCOC(=O)N1CCC(N(CCN(C)C)C(=S)Nc2cc(C)ccc2C)CC1` to `Cc1ccc2c(cnn2C(=O)CCC(=O)N2CCCCC2)c1`, the “hERG current change (%, negative = inhibition) at 10uM” value falls from 3.51% to -9%.

First: CN(C)CCCN(C(=O)c1cc2ccccc2oc1=O)c1nc2ccc(F)cc2s1.Cl
Second: Cc1cc(C)n(C(=O)c2cc3ccccc3c(=O)o2)n1
The “hERG current change (%, negative = inhibition) at 10uM” value of the first is lower: -68.1% for the first, -5.29% for the second.

First: COC(=O)CN(n1cnnc1)S(=O)(=O)c1ccccc1Cl
Second: O=C(CN(Cc1ccccc1F)S(=O)(=O)c1ccc(Cl)cc1)NCCCO
The “hERG current change (%, negative = inhibition) at 10uM” value of the first is higher: -15% for the first, -18.3% for the second.

Going from `Cc1cc(OCC(=O)Nc2ccc(S(=O)(=O)N3CCN(C)CC3)cc2)cc(C)c1Cl` to `Cc1cc(NC(=O)c2ccc(COc3ccc(Cl)c(C)c3)o2)no1`, the “hERG current change (%, negative = inhibition) at 10uM” value rises from -10.2% to 4.29%.

First: O=C(CSc1nc(=O)n(CCCN2CCOCC2)c2c1CCCC2)Nc1ccc(F)c(F)c1
Second: Cc1c(OC(C)C(=O)NCCN2CCOCC2)ccc2c3c(c(=O)oc12)CCCC3 (stereo not drawn)
The “hERG current change (%, negative = inhibition) at 10uM” value of the first is lower: -58% for the first, 5.87% for the second.

First: C#CCOCCOCCOCCNc1nc(N2CCN(C(=O)CCCCCCCCCCNC(=O)Cn3cc(CCCCCN)nn3)CC2)nc(N2CCN(C(=O)CCCCCCCCCCNC(=O)[C@@H](CCC(=O)O)n3cc(CCCCCN)nn3)CC2)n1
Second: C=CCn1c(SCC(=O)NCCOC)nc2scc(-c3ccco3)c2c1=O
The “hERG current change (%, negative = inhibition) at 10uM” value of the first is higher: -5.58% for the first, -46.8% for the second.

Going from `O=C(O)C12CC3CC(C1)CC(n1ncc(NCc4ccccc4)c(Cl)c1=O)(C3)C2` to `O=C(O)c1ncsc1-c1ccccc1`, the “hERG current change (%, negative = inhibition) at 10uM” value rises from 9% to 14.9%.

Compared with `Cc1ccc(S(=O)(=O)c2nnn(-c3cccc(F)c3)c2N)cc1`, `Cc1ccc(N2C(=O)CSCC2=O)cc1` is lower in “hERG current change (%, negative = inhibition) at 10uM” value: -4.77% for the first, -6.43% for the second.

First: COc1ccc(C(C(=O)NC2CCCC2)N(C(=O)c2snc(-c3ccc(F)cc3)c2N)c2cccc(F)c2)cc1 (stereo not drawn)
Second: CN(C)C(=O)c1ccc(NC(=O)c2cccc(S(=O)(=O)N3CCCc4ccccc43)c2)cc1
The “hERG current change (%, negative = inhibition) at 10uM” value of the first is higher: 2.28% for the first, -8.06% for the second.

Compared with `COc1cc(/C=C(/C#N)c2ccc(F)cc2)ccc1OCc1ccc(C(=O)O)o1`, `CCCOc1cc(N(CC)CC)ccc1/C=C(/C#N)c1nc2ccc(C)cc2[nH]1` is lower in “hERG current change (%, negative = inhibition) at 10uM” value: 11.8% for the first, 3.81% for the second.

First: CCn1ccc(C(=O)NC2C(=O)N3C(C(=O)O)=C(C)CSC23)n1 (stereo not drawn)
Second: Nc1ccc(C(=O)OCC(=O)NC2CC2)cc1[N+](=O)[O-]
The “hERG current change (%, negative = inhibition) at 10uM” value of the first is higher: 7.31% for the first, 3.72% for the second.

Going from `Cc1ccc(NC(=O)c2noc3c2CCCCC3)cc1C` to `Cc1ccc(C(=O)NC(N(C)C)C(Cl)(Cl)Cl)cc1` (stereo not drawn), the “hERG current change (%, negative = inhibition) at 10uM” value rises from -0.563% to -0.546%.

Going from `CCOc1ccc(/C(O)=C2/C(=O)C(=O)N(CCCN3CCOCC3)C2c2ccc(C)cc2)cc1C` (stereo not drawn) to `CCCNC(=O)Cn1c(=O)/c(=C\c2ccc(-c3cccc([N+](=O)[O-])c3)o2)s/c1=C\C(=O)C(C)(C)C`, the “hERG current change (%, negative = inhibition) at 10uM” value falls from 23.8% to 11.4%.

Going from `CCOc1cc(C)c(Cl)cc1S(=O)(=O)N(CC)CC` to `CCOc1cc(-c2conc2N)cc(OCC)c1OCC`, the “hERG current change (%, negative = inhibition) at 10uM” value falls from -4.49% to -16.5%.

First: CN(C)c1ccc(C=Nc2ccc(N(C)C)cc2)cc1
Second: CCCC(=O)NCC(c1cccs1)S(=O)(=O)c1ccc(Cl)cc1 (stereo not drawn)
The “hERG current change (%, negative = inhibition) at 10uM” value of the first is lower: -13.5% for the first, -3% for the second.

First: Cc1oc2c(C)c3oc(=O)c(CCC(=O)NCCCn4ccnc4)c(C)c3cc2c1C
Second: CCOCCCNC(=O)/C(C#N)=C/c1ccc(Cl)c([N+](=O)[O-])c1
The “hERG current change (%, negative = inhibition) at 10uM” value of the first is lower: -35.9% for the first, -5.95% for the second.

First: CCOC(=O)/C=C1\Nc2ccccc2SC1=O
Second: C=CCNC(=S)N/N=C/c1cn(C)c2ccccc12
The “hERG current change (%, negative = inhibition) at 10uM” value of the first is lower: -45.3% for the first, 3.16% for the second.
